The values that follow come from PubChem BioAssay AID1159614 (National Center for Advancing Translational Sciences (NCATS), 2016).

Out of some 45,000 compounds screened, about 65 (0.1%) were called active. Calls follow the shape of the dose curve; as a rule, active = well fitted activation curve with a large enough effect; inconclusive = small, poorly fitted or top-dose-only effect; inactive = no such curve, though single readings can be large or run the other way. This is one part of the list.

UniProt P54803, sequence (P54803 whole entry, looked up): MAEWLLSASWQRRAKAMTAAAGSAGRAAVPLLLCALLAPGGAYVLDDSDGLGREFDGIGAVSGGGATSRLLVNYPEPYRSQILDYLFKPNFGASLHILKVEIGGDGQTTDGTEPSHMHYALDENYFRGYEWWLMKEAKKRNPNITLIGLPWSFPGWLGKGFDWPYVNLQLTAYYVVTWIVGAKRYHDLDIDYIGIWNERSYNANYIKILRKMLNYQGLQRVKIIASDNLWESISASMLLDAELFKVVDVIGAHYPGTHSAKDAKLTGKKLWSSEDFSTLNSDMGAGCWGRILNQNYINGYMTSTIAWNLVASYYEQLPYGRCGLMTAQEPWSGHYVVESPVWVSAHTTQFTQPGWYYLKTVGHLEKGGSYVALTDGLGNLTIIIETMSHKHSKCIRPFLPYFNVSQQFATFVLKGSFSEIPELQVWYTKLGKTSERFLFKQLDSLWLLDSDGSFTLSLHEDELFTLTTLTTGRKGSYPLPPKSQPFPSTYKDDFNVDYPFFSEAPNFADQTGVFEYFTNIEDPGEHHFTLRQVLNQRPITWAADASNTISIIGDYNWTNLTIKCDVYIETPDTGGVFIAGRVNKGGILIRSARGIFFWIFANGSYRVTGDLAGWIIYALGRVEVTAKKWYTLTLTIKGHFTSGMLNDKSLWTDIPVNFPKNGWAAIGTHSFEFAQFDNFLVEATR

The experiment has as its target Galactocerebrosidase (Homo sapiens) (UniProt P54803). Nature of the experiment: A Novel Cell-Based Assay to Identify Small Molecules for B -Galactocerebrosidase. Also: 0% is about no effect; nearly all actives have a fitted effect of over 65% in size. To be noted: 145M-Twi-hGALC-G270D cells (Twitcher mouse brain line with human GALC G270D), HMU-beta-Gal fluorescence, 48 h; series mostly up to 57.5 µM; activation: at the top concentration. The gist of the method:
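Brain-derived Twitcher mouse 145M-Twi cells stably expressing human GALC-G270D or wild-type GALC, treated live, then residual GALC activity read by fluorescence of HMU-b-Gal substrate (0.1 mM final) in citrate-phosphate buffer pH 5.2 with sodium taurocholate. Signal increase indicates enhancement.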
On to `Cc1c(C(=O)N(Cc2ccc(N(C)C)cc2)CC2CCCO2)oc2ccccc12` (stereo unspecified), for which the “activation” value is inactive: 1.63%.
Then `Cc1ccc2c(Sc3ccc(Cl)cc3)c(C(=O)NCCC(C)C)[nH]c2c1`, with inactive: -26.9%.
In the case of `Cc1cccc(N2CCN(C(=O)c3ccc4nc(N5CCC(C)CC5)sc4c3)CC2)c1C`, the “activation” value was inactive: -22.3%.
Turning to `Cc1nc2sc(C)c(C)n2c(=O)c1S(=O)(=O)N1CCN(c2ccccc2F)CC1`, the “activation” value is inactive: -14.5%.
Then `Cc1cc(C)cc(OCC(=O)Nc2nonc2-c2ccc(Br)cc2)c1`, with inactive: -7.21%.
Consider `COc1ccc2[nH]cc(CCNC(=O)Nc3ccccc3)c2c1`, for which the “activation” value is inactive: -4.31%.
In the case of `Cc1ccc(NC(=O)CN2C(=O)c3cccnc3Sc3ccccc32)cc1C`, the “activation” value was inactive: -17.5%.
As for `COc1ccc(CN(C(=O)c2ccccc2F)C2CCS(=O)(=O)C2)cc1` (stereo unspecified), the “activation” value is inactive: -27.1%.
As for `CCCSc1ncc(Cl)c(C(=O)Nc2ccc(S(=O)(=O)N3CCCC(C)C3)cc2)n1` (stereo unspecified), the figure is inactive: -9.17%; as for `O=C(Nc1nc2c(F)cccc2s1)c1ccc(S(=O)(=O)N2CCOCC2)cc1`, inactive: -4.23%; as for `CCc1nnc(SCc2nc(-c3ccccc3Cl)oc2C)c2cc3sc(C)cc3n12`, inactive: -6.01%.
As for `CCOc1ccc(C(=O)OCCN(CC)CC)cc1`, the figure is inactive: -14.8%.
With `CCOc1ccc(NC(=O)c2ccc3[nH]c(C)cc(=O)c3c2)cc1`, the “activation” value was inactive: -9.02%.
As for `Cc1ccc(C)c(N2CCN(C(=O)c3ccc(-c4nc(COc5ccccc5)c(C)o4)cc3)CC2)c1`, the “activation” value was inactive: -9.21%.
As for `COc1cccc(CNS(=O)(=O)c2ccc3[nH]c4c(c3c2)CCCCC4)c1`, the “activation” value was inactive: -23%.
Consider `COc1ccc2c(CNCCc3ccccc3C)c(C(=O)O)n(Cc3ccccc3C)c2c1`, for which the “activation” value was inactive: -24.5%.
Take `CC1CCN(S(=O)(=O)c2ccc3c(c2)N(CC(=O)NCCN(C)C)C(=O)CO3)CC1`: the “activation” value is inactive: -2.8%.
For the molecule `COc1ccc2c(c1)c1c(c(=O)n(-c3ccc(C)cc3)c(=O)n1CC(=O)c1ccc(Cl)cc1)n2C`, the “activation” value was inactive: -16.7%.
In the case of `COc1ccc(NC(=O)Cn2cc(S(=O)(=O)N3CCC(C)CC3)c3ccccc3c2=O)cc1Cl`, the “activation” value is inactive: -15.6%.
Turning to `Cc1ccc(C)c(CNS(=O)(=O)c2ccc3c(c2)C(C)(C)C(=O)N3C)c1`, the “activation” value was inactive: -6.62%.
In the case of `Cc1ccccc1C(=O)Nc1cccc(OCc2cc(=O)n3c4c(sc3n2)CCCC4)c1`, the “activation” value is inactive: 8.28%.
In the case of `CCOC(=O)c1c(S(=O)(=O)N2CCCC(C(=O)NCc3ccc(F)cc3)C2)c(C)n(CC)c1C` (stereo unspecified), the “activation” value was inactive: -15.5%.
Regarding `COc1ccc(CN(Cc2ccco2)C(=O)COc2ccc(Cl)cc2C)cc1`, the “activation” value was inactive: -10.9%.
For the molecule `Cc1ccc2c(c1)cc1c(=O)n(CC(=O)N(C)c3ccccc3)nc(C)n12`, the “activation” value is inactive: 2.91%.
Take `O=C(CCCCn1c(=O)[nH]c2ccsc2c1=O)N1CCN(c2cccc(C(F)(F)F)c2)CC1`: the “activation” value was inactive: -7.87%.
For `CC(=O)N1CCc2c(sc3c2c(=O)n(-c2cccc(Cl)c2C)c(=O)n3Cc2ccccc2C)C1`, the “activation” value was inactive: -24.5%.
Regarding `COc1cccc(-c2nnc(SCC(=O)N3CCCCC3)o2)c1`, the “activation” value was inactive: -14.7%.
For the molecule `CCOC(=O)c1cccc(NC(=O)c2ccc3c(c2)nnn3CC)c1`, the “activation” value is inactive: -9.83%.
As for `Cc1ccc(C)c(Cn2c(=O)n(CC3CCC(C(=O)N4CCOCC4)CC3)c(=O)c3sccc32)c1` (stereo unspecified), the “activation” value is inactive: -13.7%.
For `COc1ccc(CNC(=O)C2CCCN(S(=O)(=O)N(C)c3ccc(F)cc3)C2)cc1OC` (stereo unspecified), the “activation” value is inactive: -6.31%.
Regarding `O=C(OCc1cc(=O)n2nc(-c3cccs3)sc2n1)c1cccc(Cl)c1`, the “activation” value is inactive: -17.7%.
For the molecule `CCOC(=O)c1ccccc1NC(=O)Cn1nnc2sc3c(c2c1=O)CCCC3`, the “activation” value is inactive: -14%.
Regarding `Cc1ccc(C(C(=O)NC2CCCCC2)N(C)Cc2ccccc2)cc1` (stereo unspecified), the “activation” value was inactive: 0.619%.
Consider `Cc1ccc(NC(=O)Cn2c(=O)c(C(F)(F)F)nc3ccccc32)cc1C`, for which the “activation” value is inactive: -7.85%.
Then `Cn1cc(-c2cc3n(n2)CCC(=O)N3CCCC(=O)NCc2ccc(F)cc2)c2ccccc21`, with inactive: -9.29%.
As for `Cc1cccc(C)c1NC(=O)c1nc(S(C)(=O)=O)ncc1N(Cc1ccc(C(C)(C)C)cc1)Cc1ccco1`, the “activation” value is inactive: -8.78%.
Regarding `CCOC(=O)c1ccccc1Nc1nc2ccc(C)cc2n2nnnc12`, the “activation” value was inactive: -9.48%.
In the case of `CCOc1ccc(NC(=O)c2oc3ccccc3c2NC(=O)C2CCCCC2)cc1`, the “activation” value was inactive: -8.69%.
Take `Cc1oc2c(c1C(=O)Nc1ccc(F)c(F)c1)C1=NCCN1C=N2`: the “activation” value was inactive: -16.9%.
`CCc1cccc(CC)c1NC(=O)CCS(=O)(=O)c1ccc(Br)s1`: the “activation” value is inactive: -5.71%.
Turning to `Cc1ccc(NC(=O)CSc2nc3nc(C)c(Cc4ccccc4)c(C)n3n2)cc1`, the “activation” value was inactive: -7.99%.
Then `CC(C)CNC(=O)N1CCN(S(=O)(=O)c2ccc3c(ccn3C)c2)CC1`, with inactive: -19.8%.
Take `COc1ccc(Cn2ccnc2SCC(=O)Nc2ccc3c(c2)OCO3)cc1`: the “activation” value was inactive: -9.57%.
With `COc1ccc(-c2cc(C(F)(F)F)n3nc(C(=O)Nc4cc(C(F)(F)F)ccc4Cl)cc3n2)cc1OC`, the “activation” value was inactive: -12.6%.
With `CCCCCCCCCCCCCCCC(=O)O`, the “activation” value is inactive: -10.2%.
As for `Cc1ccc2oc3c(c(=O)c2c1)C(c1ccccc1F)N(c1ccccn1)C3=O` (stereo unspecified), the figure is inactive: -18.2%; as for `COc1ccc(NC(=O)c2sc3nc4n(c(=O)c3c2C)CCC4)c(OC)c1`, inactive: -19.4%; as for `COc1ccccc1Cc1nc2ccccc2nc1SCC(=O)N1CCCCC1`, inactive: 8.03%.
Then `CCCCOc1ccccc1NC(=O)CC1Sc2ccccc2NC1=O` (stereo unspecified), with inactive: -6.36%; and `C=C1c2cccc(O)c2C(O)=C2C(=O)[C@]3(O)C(O)=C(C(N)=O)C(=O)[C@@H](N(C)C)[C@@H]3[C@@H](O)[C@H]12`, with inactive: -17.5%.
As for `Cc1noc(/C=C/c2ccccc2F)c1S(=O)(=O)N1CCC(C(=O)NCc2ccco2)CC1`, the figure is inactive: -19.2%; as for `COc1ccc(CCNC(=O)CCc2c(C)nc3cc(-c4ccc(Cl)cc4)nn3c2C)c(OC)c1`, inactive: -10.7%; as for `CCOC(=O)N1CCN(c2ncc3c(n2)CC(c2ccc(OC)c(OC)c2)CC3=O)CC1` (stereo unspecified), inactive: -42.1%.
For the molecule `Cc1cc(C)cc(N2C(=O)CSC23C(=O)N(CC(=O)NC2CCCCC2)c2ccccc23)c1` (stereo unspecified), the “activation” value was inactive: -22.1%.
Then `COc1ccc(C(=O)Nc2cccc(OCc3cc(=O)n4c5c(sc4n3)CCCC5)c2)cc1OC`, with inactive: -4.98%; and `CCOC(=O)c1ccccc1NC(=O)N1CCCn2nc(C)cc21`, with inactive: -10.9%.
Turning to `Cc1ccccc1C(=O)Nc1nnc(S(=O)(=O)N2CCc3ccccc32)s1`, the “activation” value is inactive: -11.9%.
As for `CC(=O)N1CCCc2cc(S(=O)(=O)N3CCC(C(=O)N(C)C4CCCCC4)CC3)ccc21`, the figure is inactive: -21.8%; as for `CCc1ccc(NC(=O)Cn2c(=O)n(Cc3ccc(C)cc3)c(=O)c3cccnc32)cc1`, inactive: 4.36%; as for `CNC(=O)C1CCN(C(=O)N2CC(C)Oc3ccc(Cl)cc32)CC1` (stereo unspecified), inactive: -9.37%.
As for `COc1ccc(OC)c(CCNC(=O)c2cnn(-c3ccccc3)c2-n2cccc2)c1`, the “activation” value was inactive: -19.9%.
